Laboratory results as given in PubChem BioAssay AID504466 (National Center for Advancing Translational Sciences (NCATS), 2011).
In all, about 330,000 compounds went through this assay and about 4,200 (1.3%) were called active. Inconclusive results, whose numbers are uncertain, are shown with a selection of clear calls. Calls come from the whole dose curve; as a rule, active = well fitted activation curve with a large enough effect; inconclusive = small, poorly fitted or top-dose-only effect; inactive = no such curve, though single readings can be large or run the other way. Where the call is inconclusive, the potency comes from a doubtful curve fit.

assay: qHTS screen for small molecules that induce genotoxicity in human embryonic kidney (HEK293T) cells expressing luciferase-tagged ELG1; details: HEK293T ELG1-luciferase reporter, luminescence, 16 h; series mostly up to 46 µM; note: nearly all actives have a fitted effect of over 60% in size
Summary of the method: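 16 hr compound incubation (37 °C, 5% CO2) of HEK293T cells carrying luciferase-tagged ELG1; luciferase then measured by ONE-Glo luminescence after 30 min at RT.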
Potency is the fitted concentration of half-maximal effect; tags give direction and shape of the fitted curve.

SMILES	Potency
NC(=O)c1cccc2c1C(=O)N(C1CCCCC1)C2	inconclusive: 9.2 µM [activator, partial curve, poor fit]
Cc1ccc(C(=O)CC(=O)c2cc(Cl)ccc2O)cc1	active: 14.6 µM
O=[N+]([O-])c1cc2c(c(CSc3ncccn3)c1)OCOC2	inconclusive: 16.4 µM [activator, single point]
COc1ccccc1NC(=O)COC(=O)C12CC3CC(CC(Cl)(C3)C1)C2	inactive
c1ccc2nc3c(nc2c1)OCC1CCCCN31 (stereo not drawn)	inconclusive: 29.1 µM [activator, single point]
Cc1cc2cc(CNC(=O)Nc3ccccc3)ccc2[nH]1	inconclusive: 9.2 µM [activator, partial curve, poor fit]
C=CCc1ccc(OCC(O)CN2CCc3ccccc3C2)c(OC)c1 (stereo not drawn)	inactive
CN(C)c1ccc(C(C(=O)NC(C)(C)C)N(C(=O)c2csnn2)C2CC2)cc1 (stereo not drawn)	inconclusive: 14.6 µM [activator, partial curve, poor fit]
O=C(CSc1nnnn1C1CC1)N1CCN(c2ccccc2F)CC1	inactive
Cc1ccc(-c2nc3ccccc3n3nnnc23)cc1	inconclusive: 4.61 µM [activator, full curve]
CC(C)=CCC[C@](C)(O[C@@H]1O[C@H](CO[C@@H]2OC[C@@H](O)[C@H](O)[C@H]2O)[C@@H](O)[C@H](O)[C@H]1O)C1CC[C@]2(C)C1[C@H](O)CC1[C@@]3(C)CC[C@H](O[C@@H]4O[C@H](CO)[C@@H](O)[C@H](O)[C@H]4O)C(C)(C)C3CC[C@]12C (stereo partly drawn)	inactive
O=C(Cc1nnc(NC(=O)Nc2ccccc2F)s1)NCc1ccccc1	inconclusive: 29.1 µM [activator, single point]
COc1ccccc1C(=O)Nc1ccc2c(c1)nc(CCNC(C)=O)n2C	inconclusive: 11.2 µM [activator, partial curve, poor fit]
NC(=O)c1c(NC(=O)c2ccccc2)sc2c1CCc1ccccc1-2	active: 6.51 µM
CS(=O)(=O)Nc1ccc(C(=O)Nc2ccc3c(c2)OCCO3)cc1	inconclusive: 16.4 µM [activator, single point]
COc1ccc(-n2c3c(cc(C#N)c2=O)C(=O)CCC3)cc1	inactive
COc1ccc(CNc2nc3c(c(=O)n(Cc4ccc(F)cc4)c(=O)n3C)n2C)cc1	inactive
CN(C(=O)c1ccco1)c1nc(-c2ccc(F)cc2)cs1	inconclusive: 10 µM [activator, single point]
CSc1ccccc1NC(=O)c1cc(-c2ccc3c(c2)OCO3)on1	inconclusive: 2.31 µM [activator, full curve]
CCOC(=O)c1c(C)nc2c(c1-c1ccc(OC)cc1)C(=O)CC(C)(C)C2	inactive
C=CCn1c(=O)/c(=C2/Sc3cc(OC)ccc3N2C)s/c1=C1\C(=O)N(CC)C(=S)N1C	inactive
CN(C)C(CNC(=O)c1cc2ccccc2oc1=O)c1ccccc1 (stereo not drawn)	inconclusive: 16.4 µM [activator, partial curve]
O=C(Nc1ccc(NC(=O)C2CC2)nc1)c1ccccn1	inconclusive: 2.06 µM [activator, partial curve]
C/C(=N/NC(=O)c1ccccn1)c1ccc(O)cc1	active: 16.4 µM
Cc1ccnc(NC(=O)c2ccc3c(c2)NC(=O)C(C)S3)c1 (stereo not drawn)	inconclusive: 1.64 µM [activator, partial curve]

SMILES	Potency
S=C1SCN(CC2CC2)CN1CC1CC1	inactive
COc1ccc(NC(=O)CSc2nnc(NC(=O)c3ccc(S(=O)(=O)N4CCOCC4)cc3)s2)cc1	inconclusive: 32.6 µM [activator, partial curve, poor fit]
COc1ccc(Cc2nc3ccc(C(=O)NCC4CCOCC4)cc3o2)cc1OC	inconclusive: 23.1 µM [activator, partial curve, poor fit]
C=C1[C@@H](O)[C@@H]2O[C@]3(CC[C@H](/C=C/[C@@H](C)[C@@H]4CC(C)=CC5(O[C@H](C[C@@](C)(O)C(=O)OC)CC[C@H]5O)O4)O3)CC[C@H]2O[C@@H]1[C@@H](O)C[C@H](C)[C@H]1OC2(CCCCO2)CC[C@H]1C (stereo partly drawn)	inconclusive: 0.651 µM [activator, full curve, poor fit]
CC(C)(C)c1ccc(OCc2cnc(Cl)s2)cc1	inconclusive: 18.3 µM [activator, single point]
Cc1ccc(O)c(N=CC2=C(O)c3ccccc3C2=O)c1	inconclusive: 2.91 µM [activator, full curve, poor fit]
COc1cccc2cc(C(=O)NCCN3CCOCC3)c(=O)oc12	inactive
CCCCc1ccc(NC(=O)CC(C)=O)cc1	inconclusive: 25.9 µM [activator, partial curve, poor fit]
CCN(CC)S(=O)(=O)c1ccc2c(c1)c(=O)c(C(=O)NCCc1ccc(OC)c(OC)c1)cn2C	inactive
COc1cccc(C(=O)NCCS(=O)(=O)NCCCc2ccccc2)c1	inactive
COCCCC1CCN(C(=O)C2CCC(=O)N(CCc3ccccc3)C2)CC1 (stereo not drawn)	inconclusive: 23.1 µM [activator, single point]
C=CCN1C(=O)C(C)S/C1=N\S(=O)(=O)c1ccc(Cl)cc1 (stereo not drawn)	inactive
CS(=O)(=O)N1CCN(c2ccc(NC(=O)C(c3ccccc3)c3ccccc3)cc2)CC1	inactive
CCN1CCc2nc(NC(=O)c3ccc(S(=O)(=O)N(C)C)cc3)sc2C1	inconclusive: 32.6 µM [activator, partial curve, poor fit]
Cc1ccc2c(CC(=O)N3CCc4ccccc43)coc2c1	inconclusive: 4.11 µM [activator, full curve]
Cc1cc(C(=O)CN2CCCC(C)C2)c(C)n1-c1ccc(F)cc1 (stereo not drawn)	inconclusive: 29.1 µM [activator, partial curve, poor fit]
CC1CCN(C(=O)c2cc3c(ccc4ccccc43)o2)CC1	active: 1.03 µM
Cc1ccc(NC(=O)C2CCN(S(=O)(=O)c3ccc4ccccc4c3)CC2)nc1	inactive
CCOCCCN(C(=O)c1snc(C(N)=O)c1N)C(C(=O)NCCC(C)C)c1ccc(F)cc1 (stereo not drawn)	inactive
Cc1oc2c(c1C(=O)Nc1cccc(C(=O)O)c1)CCCC2	inconclusive: 13 µM [activator, partial curve, poor fit]
Cc1ccc(NC(=O)Cn2c(CCC(=O)O)ccc2-c2cccs2)cc1Cl	inactive
COc1ccc(OC)c2c1sc(=NC(=O)c1ccco1)n2C	inconclusive: 11.6 µM [activator, partial curve, poor fit]
Cc1ccccc1OCC(=O)NC1=NCCS1	active: 9.2 µM
Cc1ccc2c(c1)Cc1nc3ccccc3nc1-2	inactive
COc1ccc(/C=C/C(=O)NC(=S)Nc2ccccc2)cc1OC	inconclusive: 18.3 µM [activator, partial curve, poor fit]

SMILES	Potency
CN(C)Cc1ccccc1Sc1ccc(Br)cc1	inactive
Brc1c(CSc2nnc(-c3ccco3)o2)nc2ccccn12	inconclusive: 10.3 µM [activator, partial curve, poor fit]
Cc1cc(C(=O)CSc2nnc(N)s2)c(C)n1-c1c(C)n(C)n(-c2ccccc2)c1=O	inactive
O=C(O)c1ccc(N/N=C/C=C/c2ccccc2[N+](=O)[O-])cc1	inconclusive: 4.47 µM [activator, partial curve, poor fit]
CC(NC(=O)c1ccccc1F)c1nnc(SCC(=O)Nc2nnc(C3CC3)s2)n1C (stereo not drawn)	inactive
COc1ccc(S(=O)(=O)N2CCCCCC2)cc1C(=O)N(CC(C)C)C1CCS(=O)(=O)C1 (stereo not drawn)	inactive
OC(c1ccccn1)(c1ccccn1)c1ccccn1	inconclusive: 29.1 µM [activator, partial curve, poor fit]
COc1ccc2[nH]c3c(c2c1)CCN1C(=O)N([C@@H](C)C(=O)NCc2ccccc2OC)C(=O)[C@]31C	inactive
Cc1cc(C)cc(-c2nc(-c3ccncc3)no2)c1	active: 20.6 µM
COC(=O)CNC(=O)c1ccc(=O)oc1	inactive
c1ccc(CSc2n[nH]c(-c3ccco3)n2)cc1	inconclusive: 20.6 µM [activator, partial curve, poor fit]
CSCCC1C(C#N)=C(N)Oc2n[nH]c(-c3cccs3)c21 (stereo not drawn)	inactive
COc1ccc2[nH]c(=O)c(CN(CC3CCCO3)C(=O)Nc3ccc(F)cc3)cc2c1 (stereo not drawn)	inactive
CN(C)c1oc(/C=C/c2ccccc2)nc1C#N	inconclusive: 18.4 µM [activator, partial curve, poor fit]
Cc1c(C(=O)Nc2ccc3oc(-c4cccnc4)nc3c2)oc2ccccc12	inactive
COc1cccc(C(C(=O)NCC2CCCO2)N(C(=O)Cn2nnc3ccccc32)c2ccc(NC(C)=O)cc2)c1OC (stereo not drawn)	inactive
CCc1c(C)nc(SCc2ccccn2)[nH]c1=O	inconclusive: 29.1 µM [activator, single point]
Cc1cc2nc(SCC(=O)Nc3ccccc3C(=O)O)[nH]c2cc1C	inconclusive: 23.1 µM [activator, partial curve, poor fit]
CCOC(=O)c1c(-c2cccc([N+](=O)[O-])c2)csc1NC(=O)CCCOc1ccccc1OC	inactive
Nc1nc(N)nc(Cc2ccccc2O)n1	inactive
CC(=O)c1ccc(OCc2cc(C(=O)N(C)Cc3cc(C)no3)no2)cc1	inactive
CCOC(=O)c1cc(-c2cccnc2)nn1-c1ccccc1C	inactive
O=C(Nc1ncccc1Cl)c1ccc2c(c1)OCCO2	active: 5.17 µM
